Measured values published in the supplement of paper PMC4967469.
A lower IC50 marks a more sensitive line; fits outside the tested doses are given as limits. AUC is the area under the same curve over the 256-fold range up to the top dose, as a fraction; the more sensitive the line, the further below 1. For some assays here: Where the top dose is marked as inferred, it comes from the curve model; the source does not state it. For some assays here: Drugs with an entry number were screened twice under separate entries, and the two screens often disagree.

Experiments:
Test in all cases: Viability of human cancer cell lines after 72 h of drug (GDSC screen)
GSK690693 = compound: CCn1c(-c2nonc2N)nc2c(C#CC(C)(C)O)ncc(OC[C@H]3CCCNC3)c21 [GSK690693]; details: top dose 10.24 µM; top dose inferred
Description: (§1)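 Human cancer cell lines in 384-well plates, medium with 10% serum, drug for 72 h over a 256-fold dose range (nine 2-fold or five 4-fold steps up to the top dose). Adherent lines were fixed and stained with the nucleic acid dye Syto60, suspension lines read with resazurin; signal relative to control wells, capped at 0 and 100%. One two-parameter sigmoid per drug and line, fitted in a mixed model over all curves with the slope shared within a line.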

BX-795 = compound: O=C(NCCCNc1nc(Nc2cccc(NC(=O)N3CCCC3)c2)ncc1I)c1cccs1 [BX-795]; details: top dose 5 µM; top dose inferred
Description: as §1

PI-103 = compound: Oc1cccc(-c2nc(N3CCOCC3)c3oc4ncccc4c3n2)c1 [PI-103]; details: top dose 10.24 µM
Description: as §1

Tretinoin = compound: CC1=C(/C=C/C(C)=C/C=C/C(C)=C/C(=O)O)C(C)(C)CCC1 [Tretinoin]; details: top dose 10 µM; top dose inferred
Description: as §1

UNC0638 = compound: COc1cc2c(NC3CCN(C(C)C)CC3)nc(C3CCCCC3)nc2cc1OCCCN1CCCC1 [UNC0638]
Description: as §1

SB-505124 = compound: Cc1cccc(-c2[nH]c(C(C)(C)C)nc2-c2ccc3c(c2)OCO3)n1 [SB-505124]; details: top dose 10 µM; top dose inferred
Description: as §1

[1] = top dose 20 µM, screen: GDSC drug entry 1236, top dose inferred
[2] = top dose 40 µM, screen: GDSC drug entry 245

What does the source list for 22RV1 (prostate, adherent)?
AUC (GSK690693): 0.854; IC50 (GSK690693): > 10.2 µM; AUC (BX-795): 0.92; IC50 (BX-795): > 5 µM; AUC (PI-103): 0.416; IC50 (PI-103): 0.357 µM; AUC (Tretinoin): 0.98; IC50 (Tretinoin): > 10 µM; AUC (UNC0638; [1]): 0.732; IC50 (UNC0638; [1]): 6.84 µM; AUC (UNC0638; [2]): 0.61; IC50 (UNC0638; [2]): 5.42 µM; AUC (SB-505124): 0.949; IC50 (SB-505124): > 10 µM

Which results are given for 42-MG-BA (glioma, adherent)?
AUC (GSK690693): 0.923; IC50 (GSK690693): > 10.2 µM; AUC (BX-795): 0.783; IC50 (BX-795): 2.26 µM; AUC (PI-103): 0.711; IC50 (PI-103): 2.64 µM; AUC (Tretinoin): 0.957; IC50 (Tretinoin): > 10 µM; AUC (UNC0638; [1]): 0.705; IC50 (UNC0638; [1]): 4.94 µM; AUC (UNC0638; [2]): 0.669; IC50 (UNC0638; [2]): 7.68 µM; AUC (SB-505124): 0.967; IC50 (SB-505124): > 10 µM

How did the AUC (GSK690693) turn out when 201T (lung adenocarcinoma, adherent) was run?
Its AUC is 0.957.

And the IC50 (GSK690693)?
The IC50 was over 10.2 µM.

What about the AUC (BX-795) of the same cell line?
The AUC was 0.898.

And the IC50 (BX-795)?
Its IC50 is over 5 µM.

And the AUC (PI-103)?
The AUC was 0.827.

What about the IC50 (PI-103) of the same cell line?
The IC50 was 8.5 µM.

And the AUC (Tretinoin)?
The AUC was 0.971.

What about the IC50 (Tretinoin) of the same cell line?
Its IC50 is over 10 µM.

And the AUC (UNC0638; [2])?
Its AUC is 0.927.

And the IC50 (UNC0638; [2])?
The IC50 was over 40 µM.

451Lu (melanoma, adherent) was tested. Which AUC (GSK690693) did it give?
The AUC was 0.989.

What about the IC50 (GSK690693) of the same cell line?
Its IC50 is over 10.2 µM.

And the AUC (BX-795)?
Its AUC is 0.935.

What about the IC50 (BX-795) of the same cell line?
Its IC50 is over 5 µM.

What about the AUC (PI-103) of the same cell line?
The AUC was 0.774.

And the IC50 (PI-103)?
The IC50 was 3.84 µM.

What about the AUC (Tretinoin) of the same cell line?
The AUC was 0.964.

What about the IC50 (Tretinoin) of the same cell line?
The IC50 was over 10 µM.

And the AUC (UNC0638; [1])?
Its AUC is 0.972.

And the IC50 (UNC0638; [1])?
The IC50 was over 20 µM.

What about the AUC (UNC0638; [2]) of the same cell line?
The AUC was 0.839.

And the IC50 (UNC0638; [2])?
Its IC50 is 25.5 µM.

What about the AUC (SB-505124) of the same cell line?
The AUC was 0.988.

And the IC50 (SB-505124)?
Its IC50 is over 10 µM.

Which AUC (GSK690693) does the source give for 639-V (bladder, adherent) here?
Its AUC is 0.992.

And the IC50 (GSK690693)?
Its IC50 is over 10.2 µM.

What about the AUC (BX-795) of the same cell line?
Its AUC is 0.925.

What about the IC50 (BX-795) of the same cell line?
The IC50 was over 5 µM.

What about the AUC (PI-103) of the same cell line?
Its AUC is 0.821.

And the IC50 (PI-103)?
The IC50 was 4.82 µM.

What about the AUC (Tretinoin) of the same cell line?
Its AUC is 0.992.

And the IC50 (Tretinoin)?
The IC50 was over 10 µM.

What about the AUC (UNC0638; [1]) of the same cell line?
Its AUC is 0.847.

What about the IC50 (UNC0638; [1]) of the same cell line?
Its IC50 is 11.5 µM.

What about the AUC (UNC0638; [2]) of the same cell line?
The AUC was 0.967.

What about the IC50 (UNC0638; [2]) of the same cell line?
Its IC50 is over 40 µM.

What about the AUC (SB-505124) of the same cell line?
Its AUC is 0.843.

And the IC50 (SB-505124)?
Its IC50 is 5.59 µM.

Which AUC (GSK690693) does the source give for 647-V (bladder, adherent) here?
Its AUC is 0.984.

What about the IC50 (GSK690693) of the same cell line?
The IC50 was over 10.2 µM.

What about the AUC (BX-795) of the same cell line?
Its AUC is 0.959.

What about the IC50 (BX-795) of the same cell line?
The IC50 was over 5 µM.

What about the AUC (PI-103) of the same cell line?
Its AUC is 0.868.

What about the IC50 (PI-103) of the same cell line?
The IC50 was 9.36 µM.

And the AUC (Tretinoin)?
Its AUC is 0.957.

What about the IC50 (Tretinoin) of the same cell line?
The IC50 was over 10 µM.

And the AUC (UNC0638; [1])?
The AUC was 0.815.

What about the IC50 (UNC0638; [1]) of the same cell line?
Its IC50 is 11.1 µM.

What about the AUC (UNC0638; [2]) of the same cell line?
Its AUC is 0.91.

And the IC50 (UNC0638; [2])?
The IC50 was over 40 µM.

What about the AUC (SB-505124) of the same cell line?
Its AUC is 0.986.

What about the IC50 (SB-505124) of the same cell line?
The IC50 was over 10 µM.

Which results are given for 5637 (bladder, adherent)?
AUC (GSK690693): 0.92; IC50 (GSK690693): > 10.2 µM; AUC (BX-795): 0.84; IC50 (BX-795): 2.97 µM; AUC (PI-103): 0.797; IC50 (PI-103): 4.31 µM; AUC (Tretinoin): 0.987; IC50 (Tretinoin): > 10 µM; AUC (UNC0638; [1]): 0.964; IC50 (UNC0638; [1]): > 20 µM; AUC (UNC0638; [2]): 0.714; IC50 (UNC0638; [2]): 9.4 µM; AUC (SB-505124): 0.974; IC50 (SB-505124): > 10 µM

With 8305C (thyroid, adherent) as the cell line, how does the AUC (GSK690693) read?
Its AUC is 0.982.

What about the IC50 (GSK690693) of the same cell line?
Its IC50 is over 10.2 µM.

And the AUC (BX-795)?
The AUC was 0.818.

And the IC50 (BX-795)?
Its IC50 is 3.99 µM.

What about the AUC (PI-103) of the same cell line?
Its AUC is 0.836.

What about the IC50 (PI-103) of the same cell line?
The IC50 was 10 µM.

And the AUC (Tretinoin)?
The AUC was 0.978.

And the IC50 (Tretinoin)?
Its IC50 is over 10 µM.

And the AUC (UNC0638; [1])?
Its AUC is 0.808.

And the IC50 (UNC0638; [1])?
Its IC50 is 14.5 µM.

What about the AUC (UNC0638; [2]) of the same cell line?
Its AUC is 0.982.

And the IC50 (UNC0638; [2])?
The IC50 was over 40 µM.

And the AUC (SB-505124)?
The AUC was 0.975.

And the IC50 (SB-505124)?
The IC50 was over 10 µM.

Which AUC (GSK690693) does the source give for 8505C (thyroid, adherent) here?
The AUC was 0.961.

What about the IC50 (GSK690693) of the same cell line?
Its IC50 is over 10.2 µM.

And the AUC (BX-795)?
Its AUC is 0.872.

And the IC50 (BX-795)?
The IC50 was over 5 µM.

What about the AUC (PI-103) of the same cell line?
The AUC was 0.584.

What about the IC50 (PI-103) of the same cell line?
The IC50 was 1.1 µM.

And the AUC (Tretinoin)?
Its AUC is 0.89.

What about the IC50 (Tretinoin) of the same cell line?
The IC50 was over 10 µM.

And the AUC (UNC0638; [1])?
The AUC was 0.719.

What about the IC50 (UNC0638; [1]) of the same cell line?
Its IC50 is 5.43 µM.

And the AUC (UNC0638; [2])?
The AUC was 0.697.

And the IC50 (UNC0638; [2])?
Its IC50 is 9.28 µM.

What about the AUC (SB-505124) of the same cell line?
The AUC was 0.983.

What about the IC50 (SB-505124) of the same cell line?
Its IC50 is over 10 µM.
